Among all 150,000 compounds or so, about 540 (0.36%) showed an effect of 50% or more. Some of the results follow.

This assay deals with Plasmodium falciparum. Nature of the assay: Primary screen in NF54 nanoGlo assay, in single point, at 2uM, 72h; a lower Z score goes with more inhibition. It counts as functional, Erythrocyte. The conditions noted are these: timepoint 72 hour.
Turning to `Cc1nn(C)cc1C(=O)N1CCC[C@H](N(C)C(=O)c2cnc(C)n2C)C1`, the “% Inhibition” value was determined as 2% and the Z score is listed as -0.38.
For `COc1ccc(-c2nc(CN3CCN[C@@H](C)C3)c(C)o2)c2ccccc12` the same measures were -2% and 0.29.
As to `Cc1ccc(C(=O)N2CCCCC2)cc1NC(=O)c1nsc2ccccc12`, the “% Inhibition” value is reported as -10% and the Z score worked out at 1.71.
For `CC1Cc2nn(-c3ccccc3)c(-c3ccc(N(C)C)cc3)c2C(=O)C1C` (stereo unspecified) the same measures were -20% and 2.64.
Turning to `O=C1C[C@H](C(=O)N(Cc2cnn(-c3ccccc3)c2)C2CC2)CN1Cc1ccccn1`, the “% Inhibition” value is -2% and the Z score was found to be 0.4.
Turning to `O=C(CN1CCC(C(F)(F)F)CC1)N1CCC[C@H](CN2CCOCC2)C1`, the “% Inhibition” value is reported as -30% and the Z score was found to be 3.54.
Take `CCn1cc(OCc2noc(-c3cccs3)n2)cn1`: the “% Inhibition” value turned out to be 32% and the Z score is listed as -3.56.
The matching figures for `CCc1ccc(S(=O)(=O)N2CCC3(CC2)C[C@@H]3NC(=O)C(C)C)cc1`: 2% and -0.29.
For `Cn1nccc1CS(=O)(=O)Cc1cccc2ccccc12` the same measures were 4% and -0.59.
The matching figures for `Cc1cc(Cl)c(C(=O)N(C)CCN2CCOC2=O)cc1C`: 5% and -0.41.
In the case of `O=C(NC1CCCCC1)N[C@H]1C[C@@H]1c1ccccc1`, the “% Inhibition” value worked out at 8% and the Z score is recorded as -1.21.
For `COc1cccc(C(=O)N2CCN(c3cc([C@H]4C[C@@H](O)C4)ncn3)CC2)c1` the same measures were -6% and 0.85.
The matching figures for `CCCN1C[C@@H](c2noc(C3(c4cc(F)cc(F)c4)CCCC3)n2)CC1=O`: 17% and -2.15.
The matching figures for `COc1ccc(-c2cnc3ncnn3c2N2CCN(S(=O)(=O)c3ccc(F)cc3F)CC2)cc1`: -3% and 0.35.
As for `COCC1CCCN(C(=O)C2CCCN(C(=O)NC3CCCC3)C2)CC1` (stereo unspecified), the “% Inhibition” value is -8% and the Z score stood at 1.08.
For `C[C@](O)(CNC(=O)NC1CCCCC1)c1cccs1` the same measures were -3% and 0.52.
The matching figures for `C[C@@H](c1cccc(C(F)(F)F)c1)N(CC(=O)N1CCN(S(C)(=O)=O)CC1)C1CC1`: 4% and -0.39.
The matching figures for `C[C@H]1Cc2ccccc2N1C(=O)CC1(N)CCC1`: -1% and 0.18.
As to `CN(CCc1noc(COc2cccc(Cl)c2)n1)C(=O)c1ccccc1C(F)(F)F`, the “% Inhibition” value is given as -17% and the Z score turned out to be 1.74.
For `CCCC(=O)N1CCN(c2c(C)n(-c3ccccc3)c(=O)n(C)c2=O)CC1` the same measures were 37% and -0.99.
For `CCCN1CCC(CC(=O)N[C@@H](C)c2ccc(C)nc2)CC1` the same measures were -10% and 1.66.
The matching figures for `CC(C)c1nsc(NCCc2ccc[nH]2)n1`: -15% and 2.04.
Turning to `Cc1nc([C@H](C)NC(=O)N2CCCCCC2)cs1`, the “% Inhibition” value amounted to 2% and the Z score was -0.33.
The matching figures for `CS(=O)(=O)N1CCC[C@H]1C(=O)N1CCc2[nH]c3c(Cl)cccc3c2C1`: -16% and 2.67.
For `C[C@@H]1CN(C(=O)CCN2CCCC2=O)C[C@]1(C)O` the same measures were -10% and 1.68.
For `COc1cc(C(=O)NCCc2nncn2C(C)C)cc(OC)c1OC`, the “% Inhibition” value is on record as -4% and the Z score stood at 0.41.
For `COCCC1CCN(C(=O)N[C@@H](C)c2cccc(OC)c2)CC1`, the “% Inhibition” value was -8% and the Z score came to 1.12.
For `COCCS(=O)(=O)NC(=O)c1cnc(-c2cccs2)s1` the same measures were 27% and -3.52.
Take `c1ccc(-c2cnn3cccnc23)c(CN2CCOCC2)c1`: the “% Inhibition” value is -5% and the Z score is on record as 0.63.
The matching figures for `Cc1cccc(CC2(NC(=O)c3ccc(CO)cc3)CC2)c1`: -20% and 2.89.
For `COc1cc2c(cc1OC)CN(C(=O)COc1c[nH]c(C)cc1=O)CC2` the same measures were -13% and 1.65.
For `CN(C)CCCN(CC1CCN(C2Cc3ccccc3C2)CC1)C(=O)C(=O)c1ccccc1` the same measures were 0% and 0.04.
As to `C=C[C@H]1OCCC[C@@H]1NC(=O)c1nn(C)c(C)c1Cl`, the “% Inhibition” value was 0% and the Z score is listed as -0.05.
With `CC(C)C[C@@H]1NC(=O)[C@@H](Cc2ccccc2)NC(=O)c2cccc(c2)Oc2ccc(cc2)C[C@@H](C(=O)N(C)CCO)NC1=O`, the “% Inhibition” value was 10% and the Z score was -1.98.
The matching figures for `CCOC(=O)c1sc(=S)n(C)c1NC(=O)c1ccccc1Cl`: 11% and -2.16.
For `CCCN(CC(=O)Nc1nc(C)no1)[C@@H](C)c1ccccc1Br` the same measures were 15% and -1.91.
Turning to `CNC(=O)C1(N2CCC[C@H]2C(=O)NC2CC2)COC1`, the “% Inhibition” value worked out at 1% and the Z score is -0.12.
The matching figures for `O=C(Nc1ccnn1C1CCN(Cc2cc3ccccc3o2)CC1)c1ccc2c(c1)OCO2`: -2% and 0.34.
For the compound `CC(C)n1cc2cc(C(=O)N3CCN(Cc4ccc5c(c4)OCO5)CC3)sc2c1`, the “% Inhibition” value stood at 3% and the Z score is -0.61.
Regarding `CC(=O)NC(C)(C)C(=O)Nc1cccc(C(F)(F)F)c1`, the “% Inhibition” value was 19% and the Z score is given as -2.19.
For `c1ccc(-c2cc(-c3ccc4ccccc4n3)c3c(ccc4ccccc43)n2)nc1` the same measures were 15% and -1.96.
The matching figures for `CCN1CCc2cc(OC)c(OC)cc2C1C(C)NC(=O)c1cccc(Cl)c1` (stereo unspecified): 3% and -0.49.
The matching figures for `CCCNc1ncnc2[nH]c(=O)c(NC(=O)c3ccc(OC)c(OC)c3)cc12`: 18% and -2.39.
For `COCC1(CNC(=O)c2cc(Cl)cn2C)CC1`, the “% Inhibition” value is reported as 1% and the Z score is reported as -0.21.
For `CC(=O)N1CC[C@H](Nc2cccc(F)c2C#N)c2ccc(F)cc2C1` the same measures were -13% and 1.99.
The matching figures for `CN(CCN1CCCC1)c1cccc(C#N)n1`: -4% and 0.45.
For `Cc1cccc(NC(=O)N2CCN(c3nc(C)cc(N4CCN(C)CC4)n3)CC2)c1` the same measures were -6% and 1.17.
For `CCC(=O)Nc1nc(C)c(C(C)(C)C)s1`, the “% Inhibition” value was -20% and the Z score came out at 2.33.
For `CN(C(=O)N[C@H]1CCS(=O)(=O)C1)C1CCCCCC1` the same measures were -4% and 0.4.
For `Cc1sc(-c2nnc(C3CC3)o2)cc1NS(C)(=O)=O` the same measures were -11% and 1.07.
For `COCCCN(Cc1cc2cc3c(cc2nc1-c1ccccc1C)OCO3)C(=O)c1cncs1` the same measures were 14% and -1.79.
`CC1CCN(S(=O)(=O)N2CCC(=O)C[C@@H]2C)CC1`: the “% Inhibition” value was -9% and the Z score is 1.13.
The matching figures for `CC[C@H](NC(=O)N1CCC2(CCOCC2)C1)c1cccc(Cl)c1`: -16% and 2.49.

One may read the % Inhibition as the drop in the measured response relative to a control, in per cent.

Values taken from ChEMBL document CHEMBL4888484, “Replenishing the malaria drug discovery pipeline: Screening and hit evaluation of the MMV Hit Generation Library 1 (HGL1) against asexual blood stage Plasmodium falciparum ,using a nano luciferase reporter read-out” (2022).
